Source: the RNAGym collection of RNA variant scans (doi:10.7554/elife.90254)
Read counts are not given, so values of variants with three or more changes are uncertain.

B1: LINE1-full (parent)
chain: UACGUAGGUGGUUUUCCCCUGAUAGUGCUAAGGGGGCCUGGAAGUUUGGACUGGGCAGAGCUCAACACAGCGUGGCAAAGUGGCUGUGGCUAGACUGCCUCUCUGGAUUCCUCGUCACUCAGCAGGGCAUCUCUGAGAGAAAUGCC

Variants of: B1
Experiment: self-cleavage, relative activity (ratio to wild type); higher = more cleavage; in vitro, sequencing; the parent is a self-cleaving ribozyme

Variant | self-cleavage
UACGUAGGUGGUUUUCCCCUGAUAGUGCUAAGGGGGCCUGGAAGUUUGGACUGGGCAGAGCUCAACUCAGCGUGGCAAAGUGGCUGUGGCUAGACUGUCUCUCUGGAUUCCUCGUCACUCAGCAGGGCAUCUCUGAGAGAAGUGCC [A67U C98U A142G] | 0.05
UACGUAGGUGGUUUUCCCCUGAUAGUGCUAAGGGGGCCUGGAAGUUUGGGCUGGGCAGAGCUCAACACAGCGUGGCAAAGUGGCUGUGGCUAGACUGCCUCUCUGGAUUCCUCGUCACUCAGCAGGGCAUCACAGAGAGAAAUGCC [A50G U132A U134A] | 0.84
UACGUAGGUGGUUUUCCCCUGAUAGUGCUAAGGGGGCCUGGAAGUUUGGACUGGGCCGAGCUUAACACAGCGUGGCAAAGUGGCUGUGGCCAGACUGCCUCUCUGGAUUCCUCGUCACUCAGCAGGGCAUCUCUGAGAGAAAUGCC [A57C C63U U91C] | 0.02
UACGUAGGUGGUUUUCCCCUGAUAGUGCUAAGGGGGCCUGGAAGUUUGGACUGGGCAGAGCUCAACACAGCGUGGCAAAGUGGCUGUGGCUAGAAUGCCUCUCUGGAUUCCUCGUCACACAGCAGGGCAUCUCUGAGAGUAAUGCC [C95A U119A A140U] | 0.06
UACGUGGGUGGUUUUCCCCUGAUAGUGCUAAGGGGGCCUGGAAGUUUGGACUGGGCAGAGCUCAACACAGCGUGGCAAAGUGGCUGUGGCUAGACUGCCUCUCAGGAUUCCUCGUCACUCAGCAGGGCAUCUCUGAGGGAAAUGCC [A6G U104A A138G] | 0.67
UACGUAGGUGGUUUUCCCCUGAUAGUGCUAAGGGGGCCUGGAAGUUUGGACUGGGCAGAGCUCAACACAGCGUGACAAAGUGGCUGUGGCUAGACUGCCUCUCUGGAUUCCUCGUCACCCAGCAGGGCAUCUCUGGGAGAGAUGCC [G75A U119C A136G A141G] | 1.05
UACGUAGGUGGUUUUCCCCUGAUAGUGCUAUGGGGGCCUGGAAGUUUGGACUGGGCAGGGCUCAACACAGCGUGGCAGAGUGGCUGUGGCUAGACUGCCUCUCUGGAUUCCUCGUCACUCAGCAGGGCAUCUCCGAGAGAAAUGCC [A31U A59G A78G U134C] | 0.2
UACGUAGGUGGUUUUCCCCUGAUAGUGCUAAGGGGGCCUGGAAGUUUGGACUGGGCAGAGCUCUACACAGCGUGGCAAGGUGGCUGUGGCUAGACUGCCCCUCUGGAUUCCUCGUCACUCAGCUGGGCAUCUCUGAGAGAAAUGCC [A64U A79G U100C A124U] | 0.07
UACGUAGGUGGUUUUCCCCUGAUAGUGCUAAGGGGGCCUGGAAGUUUGGGCUGGGCAGAGCUCAACACAGCGUGGCAAAGUGGCUGUGGCUGGACUGCCUCUCUGGAUUCCUCGUCACUCAGCAGGGCAUCUCUGAGAGAGAUGCC [A50G A92G A141G] | 0
UACGCAGGUGGUUUUCCCCUGAUAGUGCUAAGGGGGCCUGGAAGUUUGGACUGGGCAGAGCUCAACACAGCGCGGCAAAGUGGCUGUGACUAGACUGCCUCUCUGGAUUCCUCGUCACUCAGCAGGGCAUCUCUGAGAGAAAUGCC [U5C U73C G89A] | 0.07
CACGUAGGUGGUUUUCCCCUGAUAGUGCUAGGGGGGCCUGGAAGUUUGGACUGGGCAGAGCUCAACACAGCGUGGCAAAGUGGCUGUGGCUAGACUGCCUCACUGGAUUCCUCGUCACUCAGCAGGGCAUCUCUGAGAGAAAUGCC [U1C A31G U102A] | 1.82
UACGAAGGUGGUUUUCCCCUGAUAGUGCUAAGGGGGCCUGGAAGUUUGGACUGGGCAGAGCUCAACACAGCGUAGCAAGGUGGCUGUGGCUAGACUGCCUCUCUGGAUUCCUCGUCACUCAGCAGGGCAUCUCUGAGAGAAAUGCC [U5A G74A A79G] | 0.69
UACGUAGGUGGUUCUCCCCCGAUAGUGCUAAGGGGGCCUGGAUGUUUGGACUGGGCAGAGCUCAACACAGCGUGGCAAAGUGGCUGUGGCUAGACUGCCUCUCUGGAUUCCUCGUCACUCAGCAGGGCAUCUCUGAGAGAAAUGCC [U14C U20C A43U] | 1.31
UACGUAGGCGGUAUUCCCCUGAUAGUGCUAAGGGGGCCUGGAAGUUUGGACUGGGCAGAGCUCAACACAGCGUGGCAAAGUGGCUGUGGCUAGACUGCCUCUCUGGAUUCCUCGUCACUCAGCAGGGCAUCUCUGAGGGAAAUGCC [U9C U13A A138G] | 0.69
UACGUAGGUGGUUUUCCCCUGAUAGUGCUAAGGGGGCCUGGAAGUUUGGACUGGGCAGAGCCCAACACAGCGUGGCAAAGUGGCUGUGGCUAGACUGCCUCUCCGGGUUCCUCGUCACUCAGCAGGGCAUCUCUGAGAGAAAUGCC [U62C U104C A107G] | 0.39
UACGUAGGUGGUUUUCCCCUGAUAGUGCUAAGGGGGCCUGGAAGUUUGGACUGGGCAGAGCUCAACACAGCGUGGCAGAGUGGCUGUGGCUAGACUGCCUCUCUGGAUUCCGCGUCACUCAGCAGGGCAUCCCUGAGAGAAAUGCC [A78G U112G U132C] | 2.51
UACGUAGGUGGUUUUCCCCUGAUAGUGCUAAGGGGGCCUGGAAGUUUGGACUGGGCAGAGCCCAGCACAGCGUGGCAAAGUGGCUGUGGCUAGACUGCCUCUCUGGAUCCCUCGUCACUCAGCAGGGCAUCUCUGAGAGAAAUGCC [U62C A65G U109C] | 0.25
UACGUAGGUGGUUUUCCCCUGAUAGUGCUAAGAGGGCCUGGAAGUUUGGACUGGGCAGAGCUCGACACAGCGUGGCAAAGUGGCUGUGGCUAGACUGCCUCUCUGGAUUCCUCGUCACUCAGCAGGGCAUCUCCGAGAGAAAUGCC [G33A A64G U134C] | 0.18
UACGUAGGUGGUUUUCCCCUGAUAGUGCUAAGGGGGCAUGGAAGUUUGGACUGGGCAGAGCUCAACACAGUGUGGCAAAGUGGCUGUGGCUAGACUGCCUCUCUGGAUUCCUCGUCACUCAGCAGGGUAUCUCUGAGAGAAAUGCC [C38A C71U C128U] | 1
UACGUAGGUGGUUUUCACCUGAUAGUGCUAAGGGGGCCUGGAAGUUAGGACUGGGCAGAGCUCAACACAGCGUGGCAAGGUGGCUGUGGCUAGACUGCCUCUCUGGGUUCCUCGUCACUCAGCAGGGUAUCUCUGAGAGAAAUGCC [C17A U47A A79G A107G C128U] | 0.84

Variant | self-cleavage
UACGUAGGUGGUUUUCCCCUGAUAGUGCUAAGCGGGCCUGGAAGUUUGGACUGGGCAGAGCUCAACACAGCGUGGCAAGGUGGCUGUGGCUAGACUGCCUCUCUGGAUUCCUCGUCACUCAGCAGGGCAUCUCUGAGAGAUAUGCC [G33C A79G A141U] | 1.06
UACGUAGGUGGUUUACCCCUGAUAGUGCUAAGGGGGCCUGGAAGUAUGGACUGGGCAGAGCUCAACACAGCGUGGCAGAGUGGCUGUGGCUAGACUGCCUCUCUGGAUUCCUCGUCACUCAGCAGGGCAUCUCUGAGAGAAAUGCC [U15A U46A A78G] | 1.24
UACGUAGGUGGUUUUCCCCUGAUAGUGCUAAGGGGGCCUGGAAGUUUGGACUGGGCAGAGCUCAACACAGCGUGGCAAAGUGGCUGUGGCUAGACUGCCUCUCUGGAUUACUCGCCACUCAGCAGGGCAUCUCUGAGAGGAAUGCC [C110A U115C A140G] | 1.05
UACGUAGGUGGUUUUCCCCUGUUAGUGCUAAGGGGGCCUGGAAGUUUGGACUGGGCAGAGCCCAACACAGCGUGGCAAAGUGGCUGUGGCUAGACUGCCUCUCUGGAUUCCUCGUCACUCAGCAGGGCAUCUCUGAGAGAAAGGCC [A22U U62C U143G] | 0.06
UACGUAGGUGGUUUUCCCCGGAUAGUGCUAAGGGGGCCUGGAAGUUUGGACUGGGCAGAGCUCAACACAGCGUGGCAGAGUGGCUGUGGCUUGACUGCCUCUCUGGAUUCCUCGUCACUCAGCAGGGCAUCUCUGAGAGAAAUGCC [U20G A78G A92U] | 0.38
UACGUAGGUGGUCUUCCCCUGAUAGUGCUAAGGGGGCCUGGAAGUUUGGACAGGGCAGAGCUCAUCACAGCGUGGCAAAGUGGCUGUGGCUAGACUGCCUCUCUGGAUUCCUCGUCACUCAGCAGGGCAUCUCUGAGAGAAAUGCC [U13C U52A A65U] | 0.35
UACGUAGGUGGUUUUCCCCUGAUAGUGCUAAGGGGGCCUGGAAGUUUGGACUGGGCAGAGCCCAACACAGCGUGGCAAGGUGGCUGUGGCUAGACUGCCUCUCUGGUUUCCUCGUCACUCAGCAGGGCAUCUCUGAGAGAAAUGCC [U62C A79G A107U] | 0.03
UACGUAGGUGGUUUUCCCCUGAUAGUGCUAAGGGGGCCUGGAAAUUUGGACUGGGCAGAGGUCAACACAGCGUGGCAAAGUGGCUGUGGCUAGACUGCCUCUCUGGAUUCCUCGUCACUCAGCAGGGCGUCUCUGAGAGAAAUGCC [G44A C61G A129G] | 0
UACGCAGGCGGGUUUCCCCUGAUAGUGCUAAGGGGGCCUGGAAGUUUGGACUGGGCAGAGCUCAACACAGCGUGGCAAAGUGGCUGUGGCUAGACUGCCUCUCUGGAUUCCUCGCCACUCAGCAGGGCAUCUCUGAGAGAAAUGCC [U5C U9C U12G U115C] | 0
UACGUAGGUGGUUUUCCCCUGGUAGCGCUAAGGGGGCCUGGAGGUUUGGACUGGGCAGAGCUCAACACAGCGUGGCAGAGUGGCUGUGGCUAGACUGCCUCUCUGGAUUCCUCGUCACUCAGCAGGGCAUCUCUGAGAGAAAUGCC [A22G U26C A43G A78G] | 1.53
UACGUAGGUGGUUUUCCCCUGAUAGUGCUAAGGGGGCCUGGAAGUUUGGACUGGGCAGAGCUCAACACAGCGUGGCAAAGUGGCUGUGGCUUGACUGCCUCUCUGGAUUCCUCGUCACUCAGCAGGGCAUCCCUGAGGGAAAUGCC [A92U U132C A138G] | 0.17
UACGUAGGUGGUUUCCCCCUGAUAGUGCUAAGGGGGCCUGGAAGUUUGGACUGGGCUGAGCUCAACACAGCGAGGCAAAGUGGCUGUGGCUAGACUGCCUCUCUGGAUUCCUCGUCACCCAGCAGGGUAUCUCUGAGAGAAAUGCC [U15C A57U U73A U119C C128U] | 0.1
CACGUAGGUGGUUUCCCCCUGAUAGUGCUAAUGGGGCCUGGAAGUUCGGACUGGGCAGAGCUCAACACAGCGUGGCAAAGUGGCUGUGGCUAGACUGCCUCUCUGGAUUCCUCGUCACUCAGCAGGGCAUCUCUGAGAGAAAUGCC [U1C U15C G32U U47C] | 1.41
UACGUAGGUGGUUUUCCCCUGAUAGGGCUAAGGGGGCCUGGAAGUUUGGACCGGGCAGAGCUCAACACAGCGUGGCAAAGUGGCUGUAGCUAGACUGCCUCUCUGGAUUCCUCGUCACUCAGCAGGGCAUCUCUGAGAGGAAUGCC [U26G U52C G88A A140G] | 0.14
UACGUAGGUGGUUUUCCCCUGAUAGUGCUAAGGGGGCCUGGAAGUUUGGACUGAGCAGAGCUCAACACAGCGUGGCAAAGUGGCCGUGGCUAGACUGCCUCUCUGGAUUCCUCGUCACUCAGCAGGGCAUCUCUGAGAGAAAUGCU [G54A U85C C146U] | 0.06
UACGUAGGUGGUUUUCCCCUGAUAGUGCUAAGGGGGCCUGGAGGUUUGGACUGGGCAGAGCUCUACACAGCGUGGCAAAGUGGCCGUGGCUAGACUGCCUCUCUGGAUUCCUAGUCACUCAGCAGGGCAUCUCUGAGAGAAAUGCC [A43G A64U U85C C113A] | 0.09
UACGUAGGUGGUUUACCCCUGAUAGUGCUAAGGGGGCCUGGAAGUUCGGACUGGGCAGAGCUCAACACAGCGUGGCAAAGUGGCUGUGGCUAGACUGCCUCUCUGGAUUCCUCGUCACUCAGCAGGGCAUCUCAGAGAGAAAUGCC [U15A U47C U134A] | 0.49
UACGUAGGUGGUUUUCCCCUGAUAGUGCUAAGGGGGCCUGGAAGUUUGGACUGGGCAGAGCUCAACACAGCGUGGCAGAGUGGCUGUGGCUAGACUGCCUCUCUGGAUUCCUAGUCACUCGGCAGGGCAUCUCUGAGAGAAACACC [A78G C113A A121G U143C G144A] | 1.3
UACGUAGGUGGUUUUCCCCUGAUAGUGCUAAGGGGGCCUGGAAGUUCGGACCGGGCAGAGCUCAACACAGCUUGGCAAAGUGGCUGUGGCUAGACUGCCUCCCUGGACUCCUCGUCACUCAGCAGGGCAUCUCUGAGAGAAAUGCC [U47C U52C G72U U102C U108C] | 0.77
